This is an account of results in publication PMC4336329 (PLoS ONE, 2015).

About 2,200 (0.71%) of roughly 310,000 compounds showed an effect of 50% or more. The effect is printed as a negative number. Some of the results follow.

Sequence of human ether-à-go-go-related gene (hERG) potassium channel (Q12809 whole entry, looked up): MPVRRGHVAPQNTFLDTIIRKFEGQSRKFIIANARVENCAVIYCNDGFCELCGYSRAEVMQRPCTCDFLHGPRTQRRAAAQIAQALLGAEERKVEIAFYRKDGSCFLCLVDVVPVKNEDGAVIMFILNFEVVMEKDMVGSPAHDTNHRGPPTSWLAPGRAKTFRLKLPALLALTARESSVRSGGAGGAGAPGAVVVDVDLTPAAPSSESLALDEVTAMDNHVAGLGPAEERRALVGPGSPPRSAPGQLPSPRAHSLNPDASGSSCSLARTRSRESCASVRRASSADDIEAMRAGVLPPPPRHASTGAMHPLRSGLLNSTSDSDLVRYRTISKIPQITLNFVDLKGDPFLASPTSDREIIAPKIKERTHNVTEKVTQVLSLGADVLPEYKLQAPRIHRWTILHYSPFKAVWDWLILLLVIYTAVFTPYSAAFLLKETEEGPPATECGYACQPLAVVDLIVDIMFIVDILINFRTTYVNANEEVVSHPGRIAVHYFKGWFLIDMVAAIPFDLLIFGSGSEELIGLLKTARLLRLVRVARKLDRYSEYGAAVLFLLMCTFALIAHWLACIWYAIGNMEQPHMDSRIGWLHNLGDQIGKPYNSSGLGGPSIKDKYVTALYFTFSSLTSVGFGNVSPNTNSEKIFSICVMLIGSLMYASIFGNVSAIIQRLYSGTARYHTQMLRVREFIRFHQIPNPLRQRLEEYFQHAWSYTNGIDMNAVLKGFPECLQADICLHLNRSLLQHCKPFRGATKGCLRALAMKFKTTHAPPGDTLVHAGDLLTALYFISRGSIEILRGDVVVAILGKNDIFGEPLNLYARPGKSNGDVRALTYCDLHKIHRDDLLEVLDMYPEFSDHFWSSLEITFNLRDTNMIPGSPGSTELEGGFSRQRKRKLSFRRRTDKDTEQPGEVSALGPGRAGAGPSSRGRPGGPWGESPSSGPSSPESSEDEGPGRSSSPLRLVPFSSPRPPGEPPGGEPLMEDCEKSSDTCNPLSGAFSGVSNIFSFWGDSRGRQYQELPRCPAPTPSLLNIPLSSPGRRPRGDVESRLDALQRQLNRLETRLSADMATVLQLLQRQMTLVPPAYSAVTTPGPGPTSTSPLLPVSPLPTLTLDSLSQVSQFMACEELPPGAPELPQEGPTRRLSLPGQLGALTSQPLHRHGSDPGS

This experiment addresses human ether-à-go-go-related gene (hERG) potassium channel (human, UniProt Q12809). Kind of experiment: primary screen, population patch clamp on CHO cells stably expressing hERG.
Take `CC(=O)/C(=N\Nc1ccccc1Cl)Sc1cccc2cccnc12`: the “hERG current change (%, negative = inhibition) at 1uM” value was -2.76%.
The figure for `Cc1cccc(N2CCN(CC(=O)Nc3ccc(S(=O)(=O)N4CCOCC4)cc3)CC2)c1C` is -5.45%; for `Cc1ccc(C)n1-c1ccc(C(=O)NC2CCN(Cc3ccccc3)CC2)cc1` it is -32.5%; for `Cc1cc(NCC(C)C)n2ncnc2n1` it is 14.4%.
The figure for `Cc1ccc(-c2nn(CCC(=O)NCC3CCCO3)c(=O)c3ccccc23)cc1` (stereo not shown) is 8.25%; for `NC(=O)CSc1nnc(-c2ccoc2)o1` it is 9.9%; for `CC1CCCC(C)N1C(=O)c1ccc(S(=O)(=O)NCc2ccco2)cc1` (stereo not shown) it is 12%.
The figure for `CCCNC(=S)N1CCN(C)CC1.O=C(O)C(=O)O` is 16.4%; for `O=C(NNC(=O)C1CCN(Cc2cccc(F)c2)CC1)c1cccc(Cl)c1` it is 10.6%; for `O=C(C1=C[C@@H](c2ccc3c(c2)OCO3)C[C@@H](OCCCCO)O1)N1CCN(Cc2ccc3c(c2)OCO3)CC1` it is -6.18%.
Take `O=C1CC(c2ccccc2)CC(O)=C1C=Nc1ccc(O)cc1` (stereo not shown): the “hERG current change (%, negative = inhibition) at 1uM” value was found to be 3.14%.
The figure for `O=C(CCC(=O)N1CCOc2ccccc21)NCCCc1ccccc1` is -0.507%; for `CC1CC(C)CN(c2ccc(C(=O)NCc3ccc4c(c3)OCO4)cc2[N+](=O)[O-])C1` (stereo not shown) it is 9.68%.
The figure for `Cc1ccc(-c2nc3n(n2)Cc2ccccc2-3)cc1` is -3.84%; for `Cc1onc(-c2ccccc2Cl)c1C(=O)NCCCc1ccccc1` it is 8.84%; for `Nc1c(Cl)cnc(C(Cl)(Cl)Cl)c1Cl` it is 9.65%.
Regarding `Cc1ccc(S(=O)(=O)N(C)C(C)CCc2ccco2)cc1` (stereo not shown), the “hERG current change (%, negative = inhibition) at 1uM” value is listed as 21.6%.
Under `O=C1CC(C(=O)N2CCCc3ccccc32)CN1c1ccc(Cl)cc1` (stereo not shown) stands -4.4%; under `O=C(COC(=O)Cc1ccsc1)NCc1ccc(Cl)cc1`, 13.1%.
For the molecule `COc1cccc(OCCCn2ccnc2)c1.Cl`, the “hERG current change (%, negative = inhibition) at 1uM” value was determined as 13.4%.
The figure for `CC(=O)N1CCOc2ccc(S(=O)(=O)NCc3ccccc3Cl)cc21` is 1.09%.
The figure for `O=C1Nc2ccccc2C1=Nc1ccc(-c2nnc3n2CCCCC3)cc1` is 4.35%; for `CCOc1ccc(S(=O)(=O)NC(C)C(=O)NCc2ccncc2)cc1` (stereo not shown) it is 12.8%.
With `CCC(=O)Nc1ccc2c(c1)C(=O)N(C1CCCCC1)C2=O`, the “hERG current change (%, negative = inhibition) at 1uM” value came to 9.33%.
The figure for `COc1ccc(S(=O)(=O)N2CCCC(C(=O)NCCc3ccccc3)C2)cc1` (stereo not shown) is 15.8%.
